From patent US20240124614A1 come the findings set out here.

Assay [1] concerns the target ECM (extracellular matrix). Description: ECL plate assay on coated ECM (Matrigel), antibody 3 ug/mL, pH 5.8.
The target in assay [2] is ECM (extracellular matrix). Description: ECL plate assay on coated ECM (Matrigel).
The target in assay [3] is ECM (extracellular matrix). Description: ECL plate assay on coated ECM (Matrigel), antibody 3 ug/mL, pH 7.4.
Assay [4] concerns the target ECM (extracellular matrix). Description: ECL plate assay on coated ECM (Matrigel). This is another data set of the same source.
Assay [5] deals with ECM (extracellular matrix). Description: ECL plate assay on coated ECM (Matrigel). The source holds these as a separate data set.
Assay [6] has as its target ECM (extracellular matrix). Description: ECL plate assay on coated ECM (Matrigel), antibody 3 ug/mL, pH 7.4. This is another data set of the same source.
For assay [7], the target named is ECM (extracellular matrix). Description: ECL plate assay on coated ECM (Matrigel), antibody 3 ug/mL, pH 5.8. The source holds these as a separate data set.

Residue numbers refer to the chain shown, from its start. Where two headings read alike, the source gives them in different places.

B1: hT4VL.FRv4 (antibody, human IgG1, kappa)
heavy: EVQLVESGGGLVQPGGSLRLSCAASGYTFTSYVMHWVRQAPGKGLEWVSAINPYNDGNYYADSVKGRFTISRDNSRKTLYLQMNSLRAEDTAVYYCARGAYKRGYAMDYWGQGTTVTVSSASTKGPSVFPLAPSSKSTSGGTAALGCLVKDYFPEPVTVSWNSGALTSGVHTFPAVLQSSGLYSLSSVVTVPSSSLGTQTYICNVNHKPSNTKVDKKV[human IgG1 Fc not given here]GSGGGSVTGYRLFEEIL
light: DLVMTQSPSSLSASVGDRVTITCKSSQSLFNSRTRKNYLAWYQQKPGKAPKLLIYWASTRESGVPARFSGSGSGTDFTLTISSLEPEDFAVYYCQQYYYHMYTFGQGTKVEIKRTVAAPSVFIFPPSDEQLKSGTASVVCLLNNFYPREAKVQWKVDNALQSGNSQESVTEQDSKDSTYSLSSTLTLSKADYEKHKVYACEVTHQGLSSPVTKSFNRGEC
Take B1: in assay [1], the ECM binding vs Control Ab (pH 5.8) (ratio vs Control Ab) amounted to 79.7. For the same molecule, the ECM binding vs Control Ab (pH 5.8) (fold vs Control Ab) in assay [2] is 71.4; in assay [4], 91.9; in assay [5], 99.1. The ECM binding vs Control Ab (pH 7.4) (fold vs Control Ab) in assay [2] was 13.1; in assay [4] it was 12; in assay [5], 15.5. Also, the ECM binding vs Control Ab (pH 7.4) (ratio vs Control Ab) in assay [3] was 9.89.

B2: hT4VL.FRv40564 (antibody, human IgG1, kappa)
heavy: B1 heavy
light: B1 light with L2I, V3Q, S32E, R33K, Y97E, H100E, M101P
Turning to B2, the ECM binding vs Control Ab (pH 5.8) (ratio vs Control Ab) in assay [1] stood at 42.5. Also, in assay [3], the ECM binding vs Control Ab (pH 7.4) (ratio vs Control Ab) amounted to 2.65.

B3: hT4VL.FRv40575 (antibody, human IgG1, kappa)
heavy: B1 heavy
light: B1 light with L2I, V3Q, S32D, R33K, W56I, Y97F, H100Q
For B3, in assay [6], the ECM binding vs Control Ab (pH 7.4) (ratio vs Control Ab) came to 3.83. The ECM binding vs Control Ab (pH 5.8) (ratio vs Control Ab) in assay [7] was 19.

B4: hT4VL.FRv40563 (antibody, human IgG1, kappa)
heavy: B1 heavy
light: B1 light with L2I, V3Q, S32D, R33K, Y97F, H100Q
Consider B4, for which the ECM binding vs Control Ab (pH 5.8) (ratio vs Control Ab) amounted to 25.1 in assay [1] and 16 in assay [7]. Also, the results for the ECM binding vs Control Ab (pH 7.4) (ratio vs Control Ab) in assay [6] and in assay [3] were 3.64 and 3.01, respectively.

B5: hT4VL.FRv40560 (antibody, human IgG1, kappa)
heavy: B1 heavy
light: B1 light with L2I, V3Q, S32D, R33K, Y97E, H100Q, M101P
With B5, the ECM binding vs Control Ab (pH 5.8) (ratio vs Control Ab) in assay [1] was determined as 56.7. Also, the ECM binding vs Control Ab (pH 7.4) (ratio vs Control Ab) in assay [3] was determined as 3.13.

B6: hT4VL.FRv40567 (antibody, human IgG1, kappa)
heavy: B1 heavy
light: B1 light with L2I, V3Q, S32E, R33K, Y97F, H100Q, M101P
Take B6: the ECM binding vs Control Ab (pH 5.8) (ratio vs Control Ab) in assay [1] is 49.2. Further, the ECM binding vs Control Ab (pH 7.4) (ratio vs Control Ab) in assay [3] was 3.81.

B7: hT4VL.FRv40611 (antibody, human IgG1, kappa)
heavy: B1 heavy
light: B1 light with L2I, V3Q, S32D, R33K, S58I, Y97F, H100Q
Regarding B7, in assay [6], the ECM binding vs Control Ab (pH 7.4) (ratio vs Control Ab) worked out at 3.66. Further, the ECM binding vs Control Ab (pH 5.8) (ratio vs Control Ab) in assay [7] came to 19.3.

B8: hT4VL.FRv40648 (antibody, human IgG1, kappa)
heavy: B1 heavy
light: B1 light with L2I, V3Q, S32D, R33K, R60K, Y97F, H100Q
For B8, the ECM binding vs Control Ab (pH 7.4) (ratio vs Control Ab) in assay [6] came to 3.12. The ECM binding vs Control Ab (pH 5.8) (ratio vs Control Ab) in assay [7] was 13.4.

B9: hT4VL.FRv40698 (antibody, human IgG1, kappa)
heavy: B1 heavy
light: B1 light with L2I, V3Q, S32D, R33K, W56I, R60V, Y97F, H100Q
Consider B9, for which the ECM binding vs Control Ab (pH 7.4) (ratio vs Control Ab) in assay [6] came out at 2.23. For the same molecule, the ECM binding vs Control Ab (pH 5.8) (ratio vs Control Ab) in assay [7] was 8.6.

B10: hT4VL.FRv40565 (antibody, human IgG1, kappa)
heavy: B1 heavy
light: B1 light with L2I, V3Q, S32E, R33K, Y97F, H100E, M101P
For the molecule B10, in assay [1], the ECM binding vs Control Ab (pH 5.8) (ratio vs Control Ab) is 39.7. Moreover, in assay [3], the ECM binding vs Control Ab (pH 7.4) (ratio vs Control Ab) turned out to be 2.62.

B11: hT4VL.FRv40608 (antibody, human IgG1, kappa)
heavy: B1 heavy
light: B1 light with L2I, V3Q, S32D, R33K, S58F, Y97F, H100Q
B11: the ECM binding vs Control Ab (pH 7.4) (ratio vs Control Ab) in assay [6] is 3.91. Besides, the ECM binding vs Control Ab (pH 5.8) (ratio vs Control Ab) in assay [7] is 17.8.

B12: hT4VL.FRv40561 (antibody, human IgG1, kappa)
heavy: B1 heavy
light: B1 light with L2I, V3Q, S32D, R33K, Y97F, H100Q, M101P
For B12, in assay [1], the ECM binding vs Control Ab (pH 5.8) (ratio vs Control Ab) worked out at 59.1. For the same molecule, the ECM binding vs Control Ab (pH 7.4) (ratio vs Control Ab) in assay [3] was determined as 3.83.

B13: hT4VL.FRv40568 (antibody, human IgG1, kappa)
heavy: B1 heavy
light: B1 light with L2I, V3Q, N31E, R33S, R35S, Q95Y, H100Q, M101P
Turning to B13, the ECM binding vs Control Ab (pH 5.8) (ratio vs Control Ab) in assay [1] is 11.8. In addition, in assay [3], the ECM binding vs Control Ab (pH 7.4) (ratio vs Control Ab) stood at 1.76.

B14: hT4VL.FRv40697 (antibody, human IgG1, kappa)
heavy: B1 heavy
light: B1 light with L2I, V3Q, S32D, R33K, W56I, T59N, Y97F, H100Q
Turning to B14, the ECM binding vs Control Ab (pH 7.4) (ratio vs Control Ab) in assay [6] was found to be 4.4. For the same molecule, in assay [7], the ECM binding vs Control Ab (pH 5.8) (ratio vs Control Ab) turned out to be 16.8.

B15: hT4VL.FRv40573 (antibody, human IgG1, kappa)
heavy: B1 heavy
light: B1 light with L2I, V3Q, S32D, R33K, W56G, Y97F, H100Q
With B15, the ECM binding vs Control Ab (pH 7.4) (ratio vs Control Ab) in assay [6] was 3.13. In addition, the ECM binding vs Control Ab (pH 5.8) (ratio vs Control Ab) in assay [7] stood at 20.9.

B16: hT4VL.FRv40585 (antibody, human IgG1, kappa)
heavy: B1 heavy
light: B1 light with L2I, V3Q, S32D, R33K, W56V, Y97F, H100Q
Turning to B16, the ECM binding vs Control Ab (pH 7.4) (ratio vs Control Ab) in assay [6] is 3.64. The ECM binding vs Control Ab (pH 5.8) (ratio vs Control Ab) in assay [7] turned out to be 21.4.

B17: hT4VL.FRv40640 (antibody, human IgG1, kappa)
heavy: B1 heavy
light: B1 light with L2I, V3Q, S32D, R33K, T59Y, Y97F, H100Q
For B17, the ECM binding vs Control Ab (pH 7.4) (ratio vs Control Ab) in assay [6] came to 5.01. Also, the ECM binding vs Control Ab (pH 5.8) (ratio vs Control Ab) in assay [7] was found to be 22.4.

B18: hT4VL.FRv40562 (antibody, human IgG1, kappa)
heavy: B1 heavy
light: B1 light with L2I, V3Q, S32D, R33K, Y97E, H100Q
For B18, the ECM binding vs Control Ab (pH 5.8) (ratio vs Control Ab) in assay [1] came out at 31.1. Besides, in assay [3], the ECM binding vs Control Ab (pH 7.4) (ratio vs Control Ab) stood at 2.03.

B19: hT4VL.FRv40633 (antibody, human IgG1, kappa)
heavy: B1 heavy
light: B1 light with L2I, V3Q, S32D, R33K, T59N, Y97F, H100Q
Turning to B19, the ECM binding vs Control Ab (pH 7.4) (ratio vs Control Ab) in assay [6] amounted to 4.08. Further, in assay [7], the ECM binding vs Control Ab (pH 5.8) (ratio vs Control Ab) is 18.7.

B20: hT4VL.FRv40584 (antibody, human IgG1, kappa)
heavy: B1 heavy
light: B1 light with L2I, V3Q, S32D, R33K, W56T, Y97F, H100Q
In the case of B20, in assay [6], the ECM binding vs Control Ab (pH 7.4) (ratio vs Control Ab) was 3.46. Also, the ECM binding vs Control Ab (pH 5.8) (ratio vs Control Ab) in assay [7] was determined as 24.1.

B21: hT4VL.FRv40566 (antibody, human IgG1, kappa)
heavy: B1 heavy
light: B1 light with L2I, V3Q, S32E, R33K, Y97E, H100Q, M101P
On to B21, for which, in assay [1], the ECM binding vs Control Ab (pH 5.8) (ratio vs Control Ab) came out at 50. Moreover, in assay [3], the ECM binding vs Control Ab (pH 7.4) (ratio vs Control Ab) came to 3.24.

B22: hT4VL.FRv40696 (antibody, human IgG1, kappa)
heavy: B1 heavy
light: B1 light with L2I, V3Q, S32D, R33K, W56I, S58F, Y97F, H100Q
Consider B22, for which, in assay [6], the ECM binding vs Control Ab (pH 7.4) (ratio vs Control Ab) turned out to be 3.98. In assay [7], the ECM binding vs Control Ab (pH 5.8) (ratio vs Control Ab) came out at 18.

B23: hT4VL.FRv40569 (antibody, human IgG1, kappa)
heavy: B1 heavy
light: B1 light with L2I, V3Q, S32D, R33K, W56A, Y97F, H100Q
Turning to B23, the ECM binding vs Control Ab (pH 7.4) (ratio vs Control Ab) in assay [6] came to 2.7. Moreover, the ECM binding vs Control Ab (pH 5.8) (ratio vs Control Ab) in assay [7] was 23.
